Laboratory results as given in ChEMBL document CHEMBL1961873, “Compounds: GSK PKIS; Assays: Nanosyn kinase panel” (2012).
For part of these data: What follows is the remainder of the data, with few or none of the strong results. This is a selection; strong and weak results do not stand in their true shares.

Assays:
[1] = target: 5'-AMP-activated protein kinase catalytic subunit alpha-2 (Homo sapiens) (UniProt P54646); conditions: at 1 µM
[2] = target: T1, NUAK family SNF1-like kinase 1 (Homo sapiens) (UniProt O60285); conditions: at 0.1 µM
T1 sequence (whole entry): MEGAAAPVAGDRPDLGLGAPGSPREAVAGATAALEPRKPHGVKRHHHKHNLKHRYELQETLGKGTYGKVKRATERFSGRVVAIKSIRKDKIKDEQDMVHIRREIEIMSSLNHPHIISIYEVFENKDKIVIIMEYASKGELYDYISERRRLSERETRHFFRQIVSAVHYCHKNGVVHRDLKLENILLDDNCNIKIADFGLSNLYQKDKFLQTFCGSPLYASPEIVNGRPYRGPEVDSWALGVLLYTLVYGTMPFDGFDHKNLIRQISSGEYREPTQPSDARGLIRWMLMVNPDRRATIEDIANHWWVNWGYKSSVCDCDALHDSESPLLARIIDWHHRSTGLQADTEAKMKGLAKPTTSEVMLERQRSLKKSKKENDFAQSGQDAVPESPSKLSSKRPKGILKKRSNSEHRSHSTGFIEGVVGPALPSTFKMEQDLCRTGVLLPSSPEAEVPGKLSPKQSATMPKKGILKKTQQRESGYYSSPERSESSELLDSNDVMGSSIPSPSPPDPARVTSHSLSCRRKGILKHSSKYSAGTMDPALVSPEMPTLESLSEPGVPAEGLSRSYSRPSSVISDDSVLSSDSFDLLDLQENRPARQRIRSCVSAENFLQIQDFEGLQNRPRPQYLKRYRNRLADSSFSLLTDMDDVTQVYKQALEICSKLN

[3] = target: T1, NUAK family SNF1-like kinase 1 (Homo sapiens); conditions: at 1 µM
[4] = target: T2, Serine/threonine-protein kinase BRSK1 (Homo sapiens) (UniProt Q8TDC3); conditions: at 0.1 µM
T2 sequence (whole entry): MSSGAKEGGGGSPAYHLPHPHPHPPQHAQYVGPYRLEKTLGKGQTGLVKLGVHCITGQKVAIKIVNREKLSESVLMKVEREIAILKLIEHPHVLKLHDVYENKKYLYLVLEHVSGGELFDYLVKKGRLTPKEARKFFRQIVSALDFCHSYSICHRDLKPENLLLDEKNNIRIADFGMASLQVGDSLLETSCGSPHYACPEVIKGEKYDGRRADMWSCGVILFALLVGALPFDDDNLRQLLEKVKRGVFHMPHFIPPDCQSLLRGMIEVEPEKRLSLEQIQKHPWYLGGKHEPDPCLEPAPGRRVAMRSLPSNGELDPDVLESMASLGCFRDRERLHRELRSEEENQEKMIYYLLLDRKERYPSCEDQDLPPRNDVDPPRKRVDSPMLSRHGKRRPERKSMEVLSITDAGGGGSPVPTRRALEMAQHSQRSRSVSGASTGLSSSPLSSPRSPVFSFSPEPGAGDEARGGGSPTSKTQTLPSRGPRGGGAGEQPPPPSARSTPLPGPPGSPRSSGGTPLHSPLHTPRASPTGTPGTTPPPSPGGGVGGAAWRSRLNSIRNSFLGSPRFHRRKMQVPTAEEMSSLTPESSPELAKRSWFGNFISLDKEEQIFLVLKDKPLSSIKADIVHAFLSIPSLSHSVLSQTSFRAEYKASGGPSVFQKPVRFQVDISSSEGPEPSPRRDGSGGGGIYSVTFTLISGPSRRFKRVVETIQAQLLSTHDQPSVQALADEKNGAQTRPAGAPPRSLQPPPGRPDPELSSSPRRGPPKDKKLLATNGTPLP

[5] = target: T2, Serine/threonine-protein kinase BRSK1 (Homo sapiens); conditions: at 1 µM
[6] = target: T3, Serine/threonine-protein kinase BRSK2 (Homo sapiens) (UniProt Q8IWQ3); conditions: at 0.1 µM
T3 sequence (whole entry): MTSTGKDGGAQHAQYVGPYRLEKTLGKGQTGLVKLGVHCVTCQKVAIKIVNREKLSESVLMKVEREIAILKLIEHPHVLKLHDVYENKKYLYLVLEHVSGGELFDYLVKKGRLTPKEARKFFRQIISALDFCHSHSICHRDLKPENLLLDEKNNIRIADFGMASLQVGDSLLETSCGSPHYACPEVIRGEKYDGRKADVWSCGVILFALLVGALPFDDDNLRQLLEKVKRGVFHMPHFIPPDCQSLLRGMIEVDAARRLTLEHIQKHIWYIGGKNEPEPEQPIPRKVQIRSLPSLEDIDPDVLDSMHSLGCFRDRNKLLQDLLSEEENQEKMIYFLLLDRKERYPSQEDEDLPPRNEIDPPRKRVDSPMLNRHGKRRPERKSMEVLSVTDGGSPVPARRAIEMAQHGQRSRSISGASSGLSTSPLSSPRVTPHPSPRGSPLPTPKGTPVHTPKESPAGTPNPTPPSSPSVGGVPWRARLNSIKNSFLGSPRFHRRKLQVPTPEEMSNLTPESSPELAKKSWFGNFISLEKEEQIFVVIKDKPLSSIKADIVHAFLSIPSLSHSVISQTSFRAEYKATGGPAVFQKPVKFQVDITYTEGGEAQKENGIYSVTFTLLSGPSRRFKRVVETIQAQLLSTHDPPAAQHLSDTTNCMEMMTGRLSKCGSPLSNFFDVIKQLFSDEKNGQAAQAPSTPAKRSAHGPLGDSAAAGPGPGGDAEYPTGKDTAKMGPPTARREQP

[7] = target: T3, Serine/threonine-protein kinase BRSK2 (Homo sapiens); conditions: at 1 µM
[8] = target: Calcium/calmodulin-dependent protein kinase type 1D (Homo sapiens) (UniProt Q8IU85); conditions: at 0.1 µM
UniProt Q8IU85, sequence (Q8IU85 whole entry, looked up): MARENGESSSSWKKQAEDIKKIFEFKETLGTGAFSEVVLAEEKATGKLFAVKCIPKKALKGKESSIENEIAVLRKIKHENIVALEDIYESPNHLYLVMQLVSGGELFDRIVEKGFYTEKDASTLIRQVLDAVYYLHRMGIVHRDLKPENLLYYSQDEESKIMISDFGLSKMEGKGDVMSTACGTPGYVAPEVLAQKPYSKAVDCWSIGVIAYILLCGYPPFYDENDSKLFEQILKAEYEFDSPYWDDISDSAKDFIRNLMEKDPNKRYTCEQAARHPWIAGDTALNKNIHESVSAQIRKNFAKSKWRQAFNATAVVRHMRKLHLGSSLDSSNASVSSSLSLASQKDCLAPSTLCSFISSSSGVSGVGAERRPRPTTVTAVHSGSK

[9] = target: Calcium/calmodulin-dependent protein kinase type 1D (Homo sapiens) (UniProt Q8IU85); conditions: at 1 µM
[10] = target: Calcium/calmodulin-dependent protein kinase type II subunit alpha (Homo sapiens) (UniProt Q9UQM7); conditions: at 0.1 µM
UniProt Q9UQM7, sequence (Q9UQM7 whole entry): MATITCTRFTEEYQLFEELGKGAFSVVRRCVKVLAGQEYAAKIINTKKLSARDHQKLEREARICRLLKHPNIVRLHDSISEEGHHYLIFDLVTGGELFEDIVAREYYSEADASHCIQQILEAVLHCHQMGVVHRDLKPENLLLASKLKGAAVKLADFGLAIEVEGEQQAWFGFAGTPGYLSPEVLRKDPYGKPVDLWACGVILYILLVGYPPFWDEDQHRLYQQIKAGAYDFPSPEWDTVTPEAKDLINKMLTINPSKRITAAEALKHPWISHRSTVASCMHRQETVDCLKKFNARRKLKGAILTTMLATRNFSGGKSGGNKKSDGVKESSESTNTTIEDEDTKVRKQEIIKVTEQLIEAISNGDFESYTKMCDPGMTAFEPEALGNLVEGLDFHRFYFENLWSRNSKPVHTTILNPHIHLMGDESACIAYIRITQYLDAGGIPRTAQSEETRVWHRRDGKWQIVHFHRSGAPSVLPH

[11] = target: Calcium/calmodulin-dependent protein kinase type II subunit alpha (Homo sapiens) (UniProt Q9UQM7); conditions: at 1 µM
[12] = target: Calcium/calmodulin-dependent protein kinase type II subunit delta (Homo sapiens) (UniProt Q13557); conditions: at 0.1 µM
UniProt Q13557, sequence (Q13557 whole entry): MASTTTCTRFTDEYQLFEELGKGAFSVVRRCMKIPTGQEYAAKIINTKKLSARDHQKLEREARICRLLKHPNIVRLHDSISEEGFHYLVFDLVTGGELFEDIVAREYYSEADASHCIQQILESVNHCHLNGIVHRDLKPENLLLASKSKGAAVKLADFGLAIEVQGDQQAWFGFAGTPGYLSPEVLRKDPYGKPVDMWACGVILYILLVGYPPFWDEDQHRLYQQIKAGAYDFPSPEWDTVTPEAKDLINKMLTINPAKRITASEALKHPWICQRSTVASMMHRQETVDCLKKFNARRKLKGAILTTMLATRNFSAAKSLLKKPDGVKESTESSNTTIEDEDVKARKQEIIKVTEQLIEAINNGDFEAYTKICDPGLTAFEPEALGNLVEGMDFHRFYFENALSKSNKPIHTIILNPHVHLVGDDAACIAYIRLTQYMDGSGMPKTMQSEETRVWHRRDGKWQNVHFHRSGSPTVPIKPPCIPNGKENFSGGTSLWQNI

[13] = target: Calcium/calmodulin-dependent protein kinase type II subunit delta (Homo sapiens) (UniProt Q13557); conditions: at 1 µM
[14] = target: T4, Calcium/calmodulin-dependent protein kinase type IV (Homo sapiens) (UniProt Q16566); conditions: at 0.1 µM
T4 sequence (whole entry): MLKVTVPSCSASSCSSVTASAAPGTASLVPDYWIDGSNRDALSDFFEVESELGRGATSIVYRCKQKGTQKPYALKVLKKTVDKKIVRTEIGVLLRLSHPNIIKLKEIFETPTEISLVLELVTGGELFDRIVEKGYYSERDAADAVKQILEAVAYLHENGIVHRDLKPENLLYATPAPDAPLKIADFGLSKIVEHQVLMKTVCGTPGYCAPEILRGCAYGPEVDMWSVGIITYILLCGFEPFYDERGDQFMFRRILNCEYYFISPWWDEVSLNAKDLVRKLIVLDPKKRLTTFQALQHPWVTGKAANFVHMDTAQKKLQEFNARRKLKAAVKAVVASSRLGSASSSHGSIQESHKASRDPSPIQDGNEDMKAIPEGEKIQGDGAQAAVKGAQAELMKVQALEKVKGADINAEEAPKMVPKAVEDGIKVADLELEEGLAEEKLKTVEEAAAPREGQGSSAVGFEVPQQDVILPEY

[15] = target: T4, Calcium/calmodulin-dependent protein kinase type IV (Homo sapiens); conditions: at 1 µM
[16] = target: T5, Serine/threonine-protein kinase Chk1 (Homo sapiens) (UniProt O14757); conditions: at 0.1 µM
T5 sequence (whole entry): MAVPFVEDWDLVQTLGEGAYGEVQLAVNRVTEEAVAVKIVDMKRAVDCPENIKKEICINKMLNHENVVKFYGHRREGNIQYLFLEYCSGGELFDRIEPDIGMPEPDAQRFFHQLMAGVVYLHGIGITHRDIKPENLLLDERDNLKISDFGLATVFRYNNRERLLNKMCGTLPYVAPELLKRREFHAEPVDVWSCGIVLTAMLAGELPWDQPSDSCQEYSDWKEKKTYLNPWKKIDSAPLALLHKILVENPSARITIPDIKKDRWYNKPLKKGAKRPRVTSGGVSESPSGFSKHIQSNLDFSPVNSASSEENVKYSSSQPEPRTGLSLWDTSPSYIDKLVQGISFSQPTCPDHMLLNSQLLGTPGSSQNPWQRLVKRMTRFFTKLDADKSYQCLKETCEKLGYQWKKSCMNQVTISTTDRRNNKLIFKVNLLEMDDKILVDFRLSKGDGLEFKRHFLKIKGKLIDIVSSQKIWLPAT

[17] = target: T5, Serine/threonine-protein kinase Chk1 (Homo sapiens); conditions: at 1 µM
[18] = target: Serine/threonine-protein kinase Chk2 (Homo sapiens) (UniProt O96017); conditions: at 0.1 µM
UniProt O96017, sequence (O96017 whole entry): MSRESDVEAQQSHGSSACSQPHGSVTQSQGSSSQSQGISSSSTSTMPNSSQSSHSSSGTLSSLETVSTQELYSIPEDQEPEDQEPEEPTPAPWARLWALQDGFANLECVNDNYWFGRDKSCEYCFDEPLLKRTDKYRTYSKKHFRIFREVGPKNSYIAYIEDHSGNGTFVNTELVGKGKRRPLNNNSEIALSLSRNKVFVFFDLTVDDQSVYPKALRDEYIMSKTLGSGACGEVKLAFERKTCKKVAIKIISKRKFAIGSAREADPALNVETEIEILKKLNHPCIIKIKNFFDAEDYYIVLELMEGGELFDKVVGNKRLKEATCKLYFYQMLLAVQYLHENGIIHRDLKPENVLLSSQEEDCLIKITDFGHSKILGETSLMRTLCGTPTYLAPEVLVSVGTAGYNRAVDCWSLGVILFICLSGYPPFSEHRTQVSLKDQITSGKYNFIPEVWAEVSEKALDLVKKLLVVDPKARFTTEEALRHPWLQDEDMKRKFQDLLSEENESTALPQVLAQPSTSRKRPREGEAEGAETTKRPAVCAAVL

[19] = target: Serine/threonine-protein kinase Chk2 (Homo sapiens) (UniProt O96017); conditions: at 1 µM
[20] = target: Death-associated protein kinase 1 (Homo sapiens) (UniProt P53355); conditions: at 0.1 µM;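 further: reported figure is the mean inhibition of DAPK1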
UniProt P53355, sequence (P53355 whole entry, looked up): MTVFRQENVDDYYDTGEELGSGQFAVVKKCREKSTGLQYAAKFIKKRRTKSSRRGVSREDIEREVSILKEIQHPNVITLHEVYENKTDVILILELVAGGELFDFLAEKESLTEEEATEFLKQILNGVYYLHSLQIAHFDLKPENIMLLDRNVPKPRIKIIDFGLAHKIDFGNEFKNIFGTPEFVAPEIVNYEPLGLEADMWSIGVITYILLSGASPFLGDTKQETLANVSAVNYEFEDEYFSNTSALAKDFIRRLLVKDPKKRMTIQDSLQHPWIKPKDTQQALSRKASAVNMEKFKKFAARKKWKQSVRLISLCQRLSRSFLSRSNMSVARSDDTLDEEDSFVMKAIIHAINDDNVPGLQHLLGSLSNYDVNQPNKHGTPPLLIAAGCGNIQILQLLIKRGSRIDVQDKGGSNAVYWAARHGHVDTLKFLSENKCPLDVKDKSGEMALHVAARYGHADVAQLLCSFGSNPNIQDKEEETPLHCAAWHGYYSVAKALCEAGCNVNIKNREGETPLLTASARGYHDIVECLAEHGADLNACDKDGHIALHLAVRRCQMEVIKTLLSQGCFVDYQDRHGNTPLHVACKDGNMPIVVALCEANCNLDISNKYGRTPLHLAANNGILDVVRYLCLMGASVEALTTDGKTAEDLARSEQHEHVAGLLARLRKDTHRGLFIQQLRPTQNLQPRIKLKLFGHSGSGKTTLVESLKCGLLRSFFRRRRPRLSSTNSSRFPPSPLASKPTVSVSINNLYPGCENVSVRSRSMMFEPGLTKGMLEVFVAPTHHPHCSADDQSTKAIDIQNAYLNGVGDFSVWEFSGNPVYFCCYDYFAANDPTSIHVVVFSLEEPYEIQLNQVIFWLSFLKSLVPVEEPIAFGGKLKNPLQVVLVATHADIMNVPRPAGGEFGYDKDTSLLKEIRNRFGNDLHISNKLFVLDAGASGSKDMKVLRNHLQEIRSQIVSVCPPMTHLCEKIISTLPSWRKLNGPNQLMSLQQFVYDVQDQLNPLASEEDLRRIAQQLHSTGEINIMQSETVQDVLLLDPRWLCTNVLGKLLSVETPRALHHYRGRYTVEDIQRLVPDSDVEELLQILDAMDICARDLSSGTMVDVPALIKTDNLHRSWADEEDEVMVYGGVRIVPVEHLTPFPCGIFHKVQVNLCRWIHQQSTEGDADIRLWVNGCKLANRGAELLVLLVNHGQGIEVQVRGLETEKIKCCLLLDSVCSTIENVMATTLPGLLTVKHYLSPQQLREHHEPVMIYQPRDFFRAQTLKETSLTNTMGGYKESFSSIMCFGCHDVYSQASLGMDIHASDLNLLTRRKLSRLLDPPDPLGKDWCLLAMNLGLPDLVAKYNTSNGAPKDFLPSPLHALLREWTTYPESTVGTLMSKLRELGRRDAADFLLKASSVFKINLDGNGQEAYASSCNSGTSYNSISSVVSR

UniProt P54646, sequence (P54646 whole entry, looked up): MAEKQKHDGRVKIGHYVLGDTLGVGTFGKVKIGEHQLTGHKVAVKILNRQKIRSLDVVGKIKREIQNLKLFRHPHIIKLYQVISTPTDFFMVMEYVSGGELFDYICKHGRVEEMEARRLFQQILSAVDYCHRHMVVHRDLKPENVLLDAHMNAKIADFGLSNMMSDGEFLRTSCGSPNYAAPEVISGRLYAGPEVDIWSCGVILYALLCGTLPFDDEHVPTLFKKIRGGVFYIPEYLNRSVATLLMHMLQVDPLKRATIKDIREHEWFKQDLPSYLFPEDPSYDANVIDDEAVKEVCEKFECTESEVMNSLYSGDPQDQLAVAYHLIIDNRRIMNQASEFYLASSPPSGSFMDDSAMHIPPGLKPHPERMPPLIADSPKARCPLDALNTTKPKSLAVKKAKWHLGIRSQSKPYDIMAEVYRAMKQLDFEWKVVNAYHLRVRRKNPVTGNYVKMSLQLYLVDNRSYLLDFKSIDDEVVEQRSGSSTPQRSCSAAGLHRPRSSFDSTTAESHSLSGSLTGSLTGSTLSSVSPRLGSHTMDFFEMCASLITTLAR

| SMILES | inhibition [1] [%] | inhibition [2] [%] | inhibition [3] [%] | inhibition [4] [%] | inhibition [5] [%] | inhibition [6] [%] | inhibition [7] [%] | inhibition [8] [%] | inhibition [9] [%] | inhibition [10] [%] | inhibition [11] [%] | inhibition [12] [%] | inhibition [13] [%] | inhibition [14] [%] | inhibition [15] [%] | inhibition [16] [%] | inhibition [17] [%] | inhibition [18] [%] | inhibition [19] [%] | inhibition [20] [%] |
| --- | --- | --- | --- | --- | --- | --- | --- | --- | --- | --- | --- | --- | --- | --- | --- | --- | --- | --- | --- | --- |
| O=C1NC(=O)C(c2cccc([N+](=O)[O-])c2)=C1Nc1cc(Cl)c(O)c(Cl)c1 | 4.91 | -0.29 | 13.7 | -1.07 | 4.78 | 1.7 | 3.68 | 1.08 | 0.37 | 3.11 | -0.51 | 2.31 | 1.23 | 1.92 | 0.54 | 2.59 | 1.06 | 1.29 | 0.98 | 3.31 |
| Cc1cccc(Oc2nccc(-c3c(-c4ccc(F)cc4)ncn3C3CCNCC3)n2)c1C | 4.95 | 1.24 | 1.99 | 0.41 | 4.29 | 4.04 | 4.92 | 4.41 | 0.05 | 22.4 | -0.55 | 2.82 | 3.42 | -1.27 | -0.5 | 8.79 | 11.7 | 7.37 | 8.27 | 12.6 |
| Fc1ccc(-c2ncn(C3CCNCC3)c2-c2ccnc(Oc3cccc(F)c3)n2)cc1 | 4.17 | -0.94 | 4.68 | 2.01 | 0.74 | 1.57 | 4.54 | -0.3 | 2 | 1.38 | 3 | 3.18 |  | 0 | 1.26 | -4.43 | -0.91 | -2.09 | -2.46 | -3.14 |
| COc1ccccc1Oc1nccc(-c2c(-c3ccc(F)cc3)ncn2C2CCNCC2)n1 | 7.3 | 4.09 | 5.84 | 1.06 | 5.48 | 4.98 | 8.17 | -0.13 | 0.27 | 2.09 | -0.4 | 2.24 | 4.36 | 0.41 | 0.33 | -4.32 | -0.09 | -2.71 | -3.24 | -3.82 |
| COc1ccccc1C1=C(Nc2ccccc2)C(=O)NC1=O | 5.49 | -0.07 | 7.2 | 0.04 | 7.08 | 3.57 | 12 | 0.72 | 1.96 | 2.73 | 5.89 | 4.14 | 14.9 | 0.13 | -0.64 | -2.01 | -2.38 | -3.31 | -1.64 | -4.35 |
| CC(C)(C)c1ccc(Oc2nccc(-c3c(-c4ccc(F)cc4)ncn3C3CCNCC3)n2)cc1 | 5.9 | -0.96 | 4.39 | -1.81 | 1.95 | 1.03 | 4.66 | 1.26 | 3.15 | 1.49 | 5.11 | 3.29 | 8 | -1.04 | 2.6 | -0.85 | 0.23 | 3.51 | 5.41 | -0.19 |
| Fc1ccc(-c2ncn(C3CCNCC3)c2-c2ccnc(Oc3ccc(Cl)cc3)n2)cc1 | 0.55 | 1.46 | -0.41 | 0.17 | -0.05 | 1.2 | 1.96 | -0.56 | 0.97 | -2.22 | -1.84 | -0.64 | 1.18 | -0.44 | 0.11 |  | -7.06 | -5.72 | -6.53 | -8.78 |
